Experimental data from PMC4081074, “Brd4 activates P-TEFb for RNA polymerase II CTD phosphorylation” (Nucleic Acids Research, 2014).

Experiments:
[1] = biological target: T1, P-TEFb (Cdk9/CycT1 1-272) (UniProt P50750; O60563 fragment); assay: ITC; iTC200; 100 μM Brd4 PID titrated stepwise from the syringe into 10 μM P-TEFb (bound to AppNHp) or CycT1 1-272 in the cell; 298 K; 50 mM Hepes pH 7.6, 250 mM NaCl, 5% glycerol, 1 mM MgCl2, 1 mM TCEP; conditions: both partners purified
T1 construct: Cdk9, cyclin-dependent kinase 9, full length; the protocol for P-TEFb names no cleavage; also called positive transcription elongation factor b

[2] = biological target: T1, P-TEFb (Cdk9/CycT1 1-272); assay: cell-based or functional assay
T1 sequence (P50750 whole entry, chain 1 of 2): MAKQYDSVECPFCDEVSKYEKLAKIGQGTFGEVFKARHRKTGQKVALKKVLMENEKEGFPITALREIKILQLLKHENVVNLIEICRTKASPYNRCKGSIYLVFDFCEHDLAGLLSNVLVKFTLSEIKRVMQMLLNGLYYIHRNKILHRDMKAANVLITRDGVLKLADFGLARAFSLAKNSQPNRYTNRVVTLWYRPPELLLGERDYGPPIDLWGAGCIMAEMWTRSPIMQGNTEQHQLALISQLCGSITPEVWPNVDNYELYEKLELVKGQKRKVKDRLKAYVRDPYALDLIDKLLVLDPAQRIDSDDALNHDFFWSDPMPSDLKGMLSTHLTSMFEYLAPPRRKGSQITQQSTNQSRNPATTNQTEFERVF
T1 sequence (O60563 1-272, chain 2 of 2, further chain): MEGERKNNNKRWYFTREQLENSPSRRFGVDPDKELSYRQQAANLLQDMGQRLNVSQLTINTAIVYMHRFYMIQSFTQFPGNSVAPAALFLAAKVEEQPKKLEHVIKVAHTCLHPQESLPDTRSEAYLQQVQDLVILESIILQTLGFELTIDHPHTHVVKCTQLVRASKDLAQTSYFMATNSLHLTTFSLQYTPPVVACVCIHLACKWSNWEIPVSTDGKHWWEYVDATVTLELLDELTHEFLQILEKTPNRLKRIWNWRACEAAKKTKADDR

B1: Brd4 P-TEFb interaction domain (PID) (domain or fragment)
chain: not shown
notes: cloned from a synthetic plasmid codon optimized for E. coli; also called Brd4 PID; not shown: GST, N-terminal, cleaved
- Kd [1]: 470 ± 140 nM
- dH [1]: -20.1 ± 1.2 kcal/mol
- stoichiometry N [1]: 0.65 ± 0.03
- catalytic efficiency (Kcat/KM) of P-TEFb for GST-CTD phosphorylation in time course kinase assays, with PID against P-TEFb alone [2]: 2 fold
